Laboratory results from PMC4336329 (PLoS ONE, 2015).
Hit rate of the full screen: of about 310,000 compounds, about 14,000 (4.5%) showed an effect of 50% or more. The effect is printed as a negative number. The list shows a part of the results.

Biological target: human ether-à-go-go-related gene (hERG) potassium channel (human, UniProt Q12809)
Assay: primary screen, population patch clamp on CHO cells stably expressing hERG
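Further: peak tail current of the secondary pulse compared with the same well before compound.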

Chain of human ether-à-go-go-related gene (hERG) potassium channel (Q12809 whole entry, looked up): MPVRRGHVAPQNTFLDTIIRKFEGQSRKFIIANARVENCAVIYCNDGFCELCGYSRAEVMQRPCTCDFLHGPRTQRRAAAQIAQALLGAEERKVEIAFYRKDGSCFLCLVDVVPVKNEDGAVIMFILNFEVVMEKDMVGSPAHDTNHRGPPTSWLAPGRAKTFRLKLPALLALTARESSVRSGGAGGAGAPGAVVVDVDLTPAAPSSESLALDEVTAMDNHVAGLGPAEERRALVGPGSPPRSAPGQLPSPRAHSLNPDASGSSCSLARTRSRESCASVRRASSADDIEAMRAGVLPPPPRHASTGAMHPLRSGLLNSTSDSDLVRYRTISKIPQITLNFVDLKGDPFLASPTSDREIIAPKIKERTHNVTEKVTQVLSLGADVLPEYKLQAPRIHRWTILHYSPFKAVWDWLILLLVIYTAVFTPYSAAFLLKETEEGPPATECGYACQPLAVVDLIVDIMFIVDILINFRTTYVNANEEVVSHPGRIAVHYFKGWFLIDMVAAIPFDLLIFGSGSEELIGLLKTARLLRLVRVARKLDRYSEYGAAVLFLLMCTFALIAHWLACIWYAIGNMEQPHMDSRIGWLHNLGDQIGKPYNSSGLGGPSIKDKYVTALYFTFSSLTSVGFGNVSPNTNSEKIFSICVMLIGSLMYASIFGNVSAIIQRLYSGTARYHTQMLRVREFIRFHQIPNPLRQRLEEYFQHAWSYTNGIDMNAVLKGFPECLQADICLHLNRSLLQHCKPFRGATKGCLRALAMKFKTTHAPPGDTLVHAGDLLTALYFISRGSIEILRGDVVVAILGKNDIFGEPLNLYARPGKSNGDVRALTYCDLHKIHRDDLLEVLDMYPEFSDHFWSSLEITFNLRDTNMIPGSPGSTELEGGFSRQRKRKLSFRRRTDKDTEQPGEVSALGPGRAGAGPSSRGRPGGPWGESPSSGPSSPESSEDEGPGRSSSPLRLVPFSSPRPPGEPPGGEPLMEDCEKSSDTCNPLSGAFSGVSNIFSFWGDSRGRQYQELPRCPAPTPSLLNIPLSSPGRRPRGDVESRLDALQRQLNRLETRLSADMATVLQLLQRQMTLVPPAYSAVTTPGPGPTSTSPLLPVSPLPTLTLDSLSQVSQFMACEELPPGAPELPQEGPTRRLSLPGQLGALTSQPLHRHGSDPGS

| SMILES | hERG current change (%, negative = inhibition) at 10uM |
| --- | --- |
| O=C(NC(Cc1ccccc1)C(=O)O)/C(=C\c1ccccc1F)NC(=O)c1ccccc1 (stereo not drawn) | 24.2% |
| Cl.Nc1nc(N2CCN(C(=O)c3ccco3)CC2)nc2ccc(Br)cc12 | -59.5% |
| CC(C)c1ccc(N2C(=NC(=O)C3CCCO3)SC3CS(=O)(=O)CC32)cc1 (stereo not drawn) | -9.87% |
| COCCCNC(=O)C1=CCN(S(=O)(=O)c2ccc(OC)cc2)CC1 | 9.69% |
| Cc1ccc(C(=O)Nc2nc(-c3ccc(F)cc3)cs2)o1 | -28.4% |
| O=C1CCCCC1Sc1nnc(Cc2cccs2)n1CCc1ccccc1 (stereo not drawn) | -30.9% |
| O=C(NCCCN1CCOCC1)c1ccc(S(=O)(=O)Nc2cccc(C(F)(F)F)c2)cc1 | -12.8% |
| O=S(=O)(NCCOCC(F)(F)F)c1ccc2oc3ccccc3c2c1 | 3.1% |
| Cc1cc(C)cc(NC(=S)N=Nc2c(O)n(C)c3ccc(S(=O)(=O)N4CCOCC4)cc23)c1 | 1.36% |
| COc1ccc(NC(=O)COc2nc(N(C)C)nc(N(C)C)n2)cc1 | 5.22% |
| CCSC1=NN2CCS(=O)(=O)N=C2S1 | 39.8% |
| CCOC(=O)N1CCN=C1SCc1ccc(C(F)(F)F)cc1 | 2.02% |
| Cn1c(=O)oc2cc(S(=O)(=O)N3CCC(C(=O)N4CCc5ccccc5C4)CC3)ccc21 | 1.3% |
| Cc1ccsc1/C=N/NC(=O)c1ccc(-n2cccc2)cc1 | 10.2% |
| O=C(COC(=O)COc1ccc(Cl)cc1)NC1CCCCC1 | 14.3% |
| O=C(CN1C(=O)c2cccc3cccc1c23)Nc1cccnc1 | -7.98% |
| OC(c1ccccn1)(c1ccccn1)c1ccccn1 | 18.3% |
| CCOC(=O)c1c(C)[nH]c(C(=O)N2CCCC(C(=O)c3cccc(OC)c3)C2)c1C (stereo not drawn) | -8.55% |
| Cn1nccc1C(=O)N1CCN(C23CC4CC(CC(C4)C2)C3)CC1 | -4.65% |
| Fc1ccc2nc(Nc3nc4c(F)cccc4s3)sc2c1 | 6.24% |
| O=S(=O)(c1ccccc1Cl)N1CCCC1c1nc(-c2ccccc2Cl)no1 (stereo not drawn) | 0.166% |

| SMILES | hERG current change (%, negative = inhibition) at 10uM |
| --- | --- |
| C[C@]12CCC(=O)CC1CCC1C2CC[C@@]2(C)C1CC[C@@]21CCO1 (stereo partly drawn) | 7.65% |
| CNC(=S)N1CCN(c2c(F)cc3c(=O)c(C(=O)O)cn(C4CC4)c3c2OC)CC1C (stereo not drawn) | 5.74% |
| O=C(O)CCc1ccc(-c2ccc(Cl)cc2)n1Cc1ccco1 | 11.7% |
| CCOC(=O)c1cccc(NC(=O)c2cc3ccccc3o2)c1 | 1.39% |
| NS(=O)(=O)c1ccc(N2N=C(c3ccccc3)CC2c2cccc(F)c2)cc1 (stereo not drawn) | 0.467% |
| Cn1c(=O)[nH]c(=O)c2c1nc(N1CCNCC1)n2Cc1ccccc1 | -10.6% |
| COC(=O)c1cc(C(=O)N2CCOCC2)cc([N+](=O)[O-])c1 | 21.7% |
| O=C(c1ccc([N+](=O)[O-])s1)N1CCc2ccccc2C1 | 13% |
| COc1ccc(-c2nnc(SC(=O)N3c4ccccc4Sc4ccccc43)o2)cc1 | 18.3% |
| COC(=O)CC1C(=O)NCCN1C(=O)c1sc2ccccc2c1Cl (stereo not drawn) | 6.87% |
| O=C(NCCCN1CCOCC1)c1onc(CSc2ccc(F)c(F)c2)c1C(=O)NCCCN1CCOCC1 | -21.2% |
| NC(=O)c1ccc(NC(=O)CCC(=O)N2CCN(S(=O)(=O)c3ccc(Cl)cc3)CC2)cc1 | 9.22% |
| Cc1cc(OCC(=O)OCC(=O)N(C)Cc2ccccc2C)ccc1Cl | 7.91% |
| COc1ccc(S(=O)(=O)NC2(C(F)(F)F)NC(=O)N(CCc3ccccc3)C2=O)cc1 (stereo not drawn) | 13.3% |
| COc1ccccc1C(=O)NCC1CCN(c2ccc(S(=O)(=O)N3CCOCC3)cc2)CC1 | -47.1% |
| Cc1nn(Cc2ccccc2)c(C)c1CNC(=O)[C@H](C)N=C1NS(=O)(=O)c2ccccc21 | 2.59% |
| COc1ccc(-c2nc(N3CCCC3)[nH]c(=O)c2C#N)cc1 | 11.9% |
| CCCc1nn2c(=O)cc(COc3cccc(NC(=O)c4ccco4)c3)nc2s1 | -12.5% |
| S=c1[nH]nc(CSc2nc3ccccc3s2)n1Cc1ccccc1 | 11.9% |
| CCOc1ccccc1NC(=S)NC(=O)CCCOc1ccc(Cl)cc1Cl | -2.01% |
| COc1ccc(-c2cn(-c3ccc(C)cc3)c(=O)n2CC(=O)Nc2ccc(OC)cc2OC)cc1 | -7.1% |

| SMILES | hERG current change (%, negative = inhibition) at 10uM |
| --- | --- |
| NC(=O)CSc1nc(C23CC4CC(CC(C4)C2)C3)nc2ccccc12 | -25.3% |
| NC1=NC(c2cn[nH]c2-c2cccc(F)c2)n2c(nc3ccccc32)N1 (stereo not drawn) | 3.61% |
| CC1CCN(c2ccccc2NC(=O)c2ccc([N+](=O)[O-])o2)CC1 | 25% |
| O=C(/C=C/c1ccc2c(c1)OCO2)NCCSCc1ccc(Cl)cc1 | 17.5% |
| COc1ccc(C2=NN(CN3C(=O)C(=O)c4ccccc43)C(c3ccc(Br)cc3)C2)cc1 (stereo not drawn) | 11.2% |
| COCCCNC(=O)c1ccc(Cn2c(=O)c3ccccc3n(CC(=O)NCc3ccco3)c2=O)cc1 | 6.71% |
| C#CCOCCOCCOCCNc1nc(N2CCN(C(=O)CCCCCCCCCCNC(=O)[C@H](CO)n3cc(CCCSC)nn3)CC2)nc(N2CCN(C(=O)CCCCCCCCCCNC(=O)[C@H](CCCN=C(N)N)n3cc(C[C@@H](C)CC)nn3)CC2)n1 | 25.7% |
| FC(F)(F)c1cccc(NCc2n[nH]c(=S)n2C2CCCCC2)c1 | 41.2% |
| O=C(CCn1nnc2ccccc21)Nc1nnc(Cc2ccccc2)s1 | 5.59% |
| Nc1ccc(S(=O)(=O)Nc2cnc3ccccc3n2)cc1 | 8.38% |
| CC(OC(=O)c1oc2ccccc2c1COc1ccccc1)C(=O)NC(N)=O (stereo not drawn) | 14.4% |
| CN1CC(c2ccccn2)C2(SC(=S)N(Cc3ccccc3)C2=O)C12C(=O)Nc1ccccc12 (stereo not drawn) | -13.5% |
| Cc1nn2c(-c3ccccn3)ccnc2c1Cl | 19.5% |
| Cc1cnc(CN(C)Cc2c(C(=O)N3CCCCCCC3)nc3ccc(Cl)cn23)[nH]1 | -29% |
| Cc1ccc(S(=O)(=O)c2c(COC(=O)c3cccc(Cl)c3)c(-c3ccccc3)nn2C)cc1 | -14.7% |
| CCCc1ccc2c(N)c(C#N)sc2n1 | -8.91% |
| CC(C)[C@H](NC(=O)N1CCn2c1nc1ccccc12)C(=O)NCC1CCCO1 (stereo partly drawn) | 15.2% |
| Cc1ccc(CNC(=O)COC(=O)CCC(=O)c2cccs2)cc1 | 5.14% |
| CCC(=O)N1CCN(c2ccc(NC(=O)c3ccc4ccccc4c3)cc2)CC1 | 22.6% |
| COc1cc(Nc2nc3ccccc3n3nnnc23)cc(OC)c1OC | 12.5% |
| CN(C)Cc1ccccc1Sc1ccc2c(c1)CCCC2.O=C(O)C(=O)O | -4.87% |

| SMILES | hERG current change (%, negative = inhibition) at 10uM |
| --- | --- |
| Cc1ccccc1N(C(=O)Cn1nnc(-c2ccc(F)cc2)n1)C(C(=O)NC(C)(C)C)c1ccncc1 (stereo not drawn) | -12.6% |
| Cc1cccc(N=Cc2c(O)n(C)c(=O)n(C)c2=O)c1 | 8.18% |
| O=C(COC(=O)Cn1[nH]c(=O)c2ccccc2c1=O)NNC(=O)c1ccccc1 | 7.14% |
| O=C(N/N=C/c1c(O)ccc2ccccc12)c1ccc(CO)nc1 | 7.09% |
| COc1ccc(C(=O)CSc2cc(C)nc3nc(C)nn23)cc1OC | 11.6% |
| CCOC(=O)c1sc2nc3c(cc2c1N)COC(C(C)C)C3 (stereo not drawn) | -3.48% |
| CC(C)Cc1cc(CN2CCC(CO)(Cc3cccc(C(F)(F)F)c3)CC2)[nH]n1 | -78% |
| Cc1c(NC(=O)CSCc2ccco2)c(=O)n(-c2ccccc2)n1C | 4.61% |
| Cc1ccnc(NC(=O)C2CCC(CNc3c(N4CCCC4)c(=O)c3=O)CC2)c1 (stereo not drawn) | -5.02% |
| COc1ccc(NC(=O)c2ccc(COCC(F)(F)C(F)F)cc2)cc1OC | 7.39% |
| Cc1cccc(NC(=O)NNC(=O)c2ccc3ccccc3c2)c1 | 15.8% |
| COc1ccccc1N1CCN(Cc2nc3ccsc3c(=O)[nH]2)CC1 | 8.76% |
| O=C(CC1SC(N2CCCC2)=NC1=O)Nc1ccc(C(=O)Nc2ccccc2)cc1 (stereo not drawn) | 9.03% |
| COc1cccc(C(=O)NNC(=O)c2ccc3ccccc3c2O)c1 | 7.66% |
| Cc1ccc(/C=N/N(C)S(=O)(=O)c2ccc(C)cc2)cc1 | -14.7% |
| CC(=O)c1ccc(N2CCN(C(=S)Nc3cc(C)ccc3C)CC2)cc1 | -7.26% |
| COC(=O)Nc1ccc(S(=O)(=O)N(C)C)cc1 | -4.33% |
| COc1ccccc1C(=O)N1CCN(Cc2nc3cc([N+](=O)[O-])ccc3n2C)CC1 | -67.6% |
| Cc1cc(=O)n2[nH]c(NCc3c(F)cccc3Cl)nc2n1 | 20.1% |
| Cc1ccc(C)c(NCc2ccccc2CO)c1 | -11.4% |
| COC(=O)C1=C(c2cc3ccccc3s2)C[C@@H]2CC[C@H]1N2C(=O)N1CCCCC1 | -5.45% |
